# Measurements published in the supplement of paper PMC11417369.
# Some of the results follow.
# System: PF3D7_0420300 AP2 domain 1 (GST-tagged)
# Test: gcPBM binding intensity (ln(normalized median fluorescence intensity)); higher = stronger DNA binding
# Summary of the method: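 Probes on an Agilent 4 × 180k array were primer-extended, double-stranded and 36 bp long, taken from intergenic genomic regions, with negative controls added. GST-tagged P. falciparum DNA-binding domains from E. coli, about 25 μg on average, were applied to the array for 1 h in 1× PBS containing 1% milk, 0.2 mg/ml BSA, 0.5% salmon testes DNA and 0.03% Triton X-100. Binding intensity, obtained after Alexa488 anti-GST antibody detection and a 488 nm scan, is the highest Masliner-normalised natural-log median intensity across replicate spots of either probe orientation.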
row,Sequence,gcPBM binding intensity (ln)
1,TCACATACATTACTTACACACCATATTGATATATAC [CACACA_site6353],9.7
2,GTTCTGTAAATACGTGCACACACAAATCACAAATGT [CACACA_site7999],9.74
3,AATTAAAAAAGTAATTAACACACAATAATGTAATGC [CACACA_site9388],9.71
4,AAAGAAATGAAATATACACACATACATATATACATA [CACACA_site9335],9.81
5,GATATATTTTATATATGTACATACAATGGTAAATAT [XGTACX_site2759],9.27
6,TTTTTTTTCTTTTTTTGTACATAATAATATATAAAT [XGTACX_site6778],9.12
7,TATTCTTACAAAAGTAGTACAATCATTCATATTTTT [XGTACX_site631],9.01
8,AAAAATGAAAAATGAAAAATGAAAAATGAAAAATAA [CACACA_negctrl_site695],9.48
9,TATATATATATAATTGTGCACATAATTTTAAACCAA,9.29
10,TAGTTTCAAGTAGGACGTACATATAAAAGGATTTTT [XGTACX_site7136],9.33
11,TATGTGTGAAAAAAATGTACATATATATAAATTATA [XGTACX_site7202],9.47
12,ATATATATATATAATAGTACATATATTTTGAAAGAT [XGTACX_site5800],9.28
13,AACTGTAAAAAATATAAACACACATAGAAATATATA [CACACA_site8002],9.81
14,AATTTTCCATAGATTGTGCACAAATTTTTATTTTGT,9.29
15,TTATAATCAATGAATACACACATATATTTAATTAAT [CACACA_site3613],9.47
16,AAGAAAAAGACTTCATGAAAAAGAATTTTTTTAATT [TGCATGCA_negctrl_site473],8.87
17,TAATATTATTTTTCAGTGCAATATAACCTTAGAATT [GTGCAC_site9417],9.01
18,ATATATTTTTTTTTTATTTTATTATTATAATTTATC [XGTACX_negctrl_site16],9.33
19,AAACAAAACAACTAAGTGCATAAAAATAAAATAAAT,9.69
20,ATTTTATTTTTTTGAAGTACGAATTCCGAGAAGAAA [XGTACX_site43],8.77
21,TATTCAAAAATATAAACAATGAAACAGTATAATATG [CACACA_negctrl_site1482],9.54
22,TATAGTTCTTCTATTTGTACATATATTATTATTTAA [XGTACX_site895],9.26
23,GGATATTATATAAAGTGTACAAGACAAATATATACA [XGTACX_site8173],9.42

row,Sequence,gcPBM binding intensity (ln)
1,ATATATCAAGGGAGTGAATGTTATGCATATGAATAT [TGCATGCA_negctrl_site573],9.35
2,AATAAATTAAATAAAAATGTTTAACATAAAATATGA [GTGCAC_negctrl_site373],9.13
3,AAATTAACAAACTGTAGTACTAACAATATATACAAA [XGTACX_site1772],9.45
4,AAAAAAAAAAAACACACACACAAAATAAACAAACAA [CACACA_site2721],10.3
5,ATTATAATTATCAAGGTGCGTGTATTATAATAAATA [GTGCAC_site9917],9.3
6,TAATATAATAATAATTGTACTTTTCATAGTGTAATT [XGTACX_site8152],9.07
7,TCTTTTATATTGTAGAGTACATATTTTCAATATATA [XGTACX_site5586],9.04
8,TTCTTTTATAAAAGTAGTACAATTATATTGTAATTA [XGTACX_site2855],8.89
9,AAATTGTCAAAACACGCACACACATATACATAATAA [CACACA_site1743],9.86
10,GTGATACGCTATAGGACACACGCTTAATAATTATAA [CACACA_site1694],9.1
11,ATCATAAATTATTATACACACAATACGTGACCTATT [CACACA_site1906],9.71
12,TTTTAAGGTGTGAAGGTGCAAAAAGGTAAATAGGAA,9.62
13,TAAACAGAAGCACATACACACACTCAAAAAAAAAAA [CACACA_site3051],9.83
14,CACAAACACCCAAACACACACACACCGACATACATA [CACACA_site4410],10
15,AAAATACATAAACACACACACACACCGATATATATA [CACACA_site9186],10.3
16,AAAAAAAAAAAAGGCACACAAACATATGTAGACATA [CACACA_site2284],9.67
17,TCGTGTGTAATATTATATATATATATATAATATATA [TGCATGCA_negctrl_site289],9.37
18,TATTTTACACATTTACGTACATAAATATATATATAT [XGTACX_site8788],9.49
19,TACGCACAAAAATATACACACACACCGATATATTTA [CACACA_site9213],9.89
20,AGACATTTTTAAGCAAAACATTCATCATCTTATAAT [CACACA_negctrl_site1539],9.03
21,TTTGAAATGATATATAAACACACATATATATATATA [CACACA_site9170],9.45
22,CTAACAACCAAACGCACACACACAAAAAAAAAAATA [CACACA_site400],9.96
23,ATATTGAATTCCAACACATGCAAAACTTTCGGTTTT [TGCATGCA_site485],9.2

row,Sequence,gcPBM binding intensity (ln)
1,AACAACTATTAATTTACACACATGTATATATCTTAC [CACACA_site7459],9.69
2,TATTAAAAGGTGAGTACACACATATATGCGTATATA [CACACA_site2102],9.37
3,TAGAAGCAGAAACACACACACATACATACACATACA [CACACA_site1467],9.99
4,TCTATGTAGTTTTTATGTACTAAATAAATAAATAAA [XGTACX_site2599],8.83
5,TTTTCAATATATATTTGTACTTTATTTTATGATATT [GTGCAC_negctrl_site732],9.46
6,GCATTCATTTTTAATACACACAAAAAAAAAATAAAA [CACACA_site2408],9.34
7,TAAATGTCCTTATTTGCACACACACCGATAAGAAAT [CACACA_site5723],9.81
8,ACTATTAACAGTGTAGTGCAAAAAGGTTAATTATTA,9.42
9,TACATATATATTTGTTCACACACACCCAAAAAAAAA [CACACA_site8788],9.79
10,TATAAATATATATGTACACACATATACATGTTGAAT [CACACA_site3118],9.48
11,TATAAACATAAATATACACACAAACATCTATGTATT [CACACA_site4804],9.74
12,AAAAAAAAATATCACACACACATAAATATAAACCAA [CACACA_site2279],10.1
13,ATTGGGTTCATCAGCACACACAACATCATGTAATAA [CACACA_site5093],9.5
14,AGAGCATAATAAAACACACACATACATACATATATA [CACACA_site935],9.82
15,TAAAACATCAAGGGGTGTACAAAAAAGATGAACAGG [XGTACX_site6929],9.5
16,AAAAAAAAAAAAACTACACACATAAAATATATTGTG [CACACA_site805],9.44
17,AGGCACTTATAATAATGTACATAAATAAAAAGAAAA [XGTACX_site6037],9.2
18,TATGTAAAAACAGGCACACATATATCATATATATAT [CACACA_site619],9.56
19,TATGTATGCCTGTTTTGTACTTAAGAAAATGTTGCT [XGTACX_site8443],9.28
20,AAAAAAAAAAAAAAAAGTACATAATATAAAATCTAA [XGTACX_site6019],9.13
21,AAAAAAAAAAAAAAATGTACATATTAAGTATAATTA [XGTACX_site4616],9.07
22,CAATTTGGTGTACAGGTGCACATGCCTCACGATAAA [GTGCAC_site9650],9.19
23,TTAGCTCAATTTTTGGGTACACACAAATGTATAATA [XGTACX_site5003],9.33

row,Sequence,gcPBM binding intensity (ln)
1,GAAAAATGTAAATACATATATGTACACAAATATATA [GTGCAC_negctrl_site557],9.24
2,TTTAATTCCATAAGTAAACACACAAATGCCAAAATT [CACACA_site9049],9.58
3,AATATTTATAAATTTACACACACACGGGTGAACATA [CACACA_site6979],9.89
4,ATTCTAAATTAAAATACACACATATATACATAATAT [CACACA_site2792],9.49
5,ACCCATTTTAATTTAGTGCACATTTTACCTTTATAC,9.69
6,AAAAAAATAACAAAGTGTACTTTTATATTTTACATA [XGTACX_site8954],8.93
7,TTCTGCAGCAATGTTTTTTTTAAATATTTATATGGT [CACACA_negctrl_site1815],9.26
8,TTTTTTTCTTTTTCAAAAAAAAAAAAAAAAAAAATA [GTGCAC_negctrl_site329],8.43
9,GCTAGTTTTTTTTGGCGTACAGTACCGGTTTACTTT [XGTACX_site2606],9.42
10,TTCCTCTTAATATGTGCACACTAAATTATAACATAA [CACACA_site3260],9.19
11,CATACCATACATAAAACACACAAAATTTACATAATA [CACACA_site3100],9.7
12,TATAGTTTTATTATTTATGTGTTAAAATTATACAAG [TGCATGCA_negctrl_site246],9.11
13,TGTATTATAATATTATGTACTTATAAATTTTATATT [XGTACX_site6432],9.2
14,AATTTAAAGTTTTTTTTTTTTTTTTTTTTTTTTTTG [CACACA_negctrl_site1082],8.81
15,TCTCACATTCTTATGGGTACACATGAGAAATTATAA [XGTACX_site6799],8.89
16,TGGGTGGTAAAAATGTGTACATAAAAAAATAATGTT [XGTACX_site2235],9.39
17,ATATTATTATAAAGTGGTACAATAAATGGTATTATA [XGTACX_site391],9.26
18,AAAAGGAATGAAAATTCACACAACTATAAATACATA [CACACA_site5337],9.37
19,GTTACACCAACAAACACACACACACCCACCCACAAA [CACACA_site2427],10.2
20,AAAAAAAATATATATATTAAAGTTTTAATTTTTATA [CACACA_negctrl_site497],9.03
